Data on 42 sequences can be found in PMC7819943, “Rice protein-binding microarrays: a tool to detect cis-acting elements near promoter regions in rice”.

The other results are listed elsewhere or left out.

The target of the test is T1, OsWOX13 (Oryza sativa, UniProt Q5QMM3 1-267).
T1 sequence: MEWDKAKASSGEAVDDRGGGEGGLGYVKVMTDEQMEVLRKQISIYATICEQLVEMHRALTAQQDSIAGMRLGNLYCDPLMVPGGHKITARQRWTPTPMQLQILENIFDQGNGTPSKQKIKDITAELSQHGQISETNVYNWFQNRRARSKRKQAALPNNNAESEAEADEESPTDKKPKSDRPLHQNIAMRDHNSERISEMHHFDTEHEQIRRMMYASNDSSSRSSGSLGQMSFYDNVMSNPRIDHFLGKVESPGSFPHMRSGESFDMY
The experiment in a line: protein-binding microarray (RPBM); PBS, 2% BSA, 51.3 ng/ul salmon testes DNA, 50 uM zinc acetate, 200 nM TF, 25 C, 1 h; high values mean tight binding. As to conditions: protein: recombinant; tags: N-terminal polyhistidine and DsRed monomer fusion (pET32a); label: CyDye5-dUTP incorporated in the synthesized complementary strand; 3' TTTTT single-stranded linker to array surface; dsDNA, one strand shown. The essentials:
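A custom Agilent array was converted to double-stranded form by primer extension with Cy5-dUTP and blocked with 2% BSA. Protein at 200 nM in PBS with 2% BSA, salmon testes DNA and 50 µM zinc acetate was applied for 1 h at 25 °C, followed by washing. The proteins were polyhistidine–DsRed N-terminal fusions of transcription factors, expressed in E. coli BL21-CodonPlus and Ni–NTA-purified. The binding signal is per-feature fluorescence intensity (arbitrary units) from an Axon 4000B scanner.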
On to “TGTGAAAATGGATAATTAAGGGATCCCAAAGACCCATAAGCGGAGTCACCTAGTGCAG”, for which the binding signal is 10800 fluorescence intensity (a.u.).
Next, “CGGCTAAACTTAAATTTCGTTCCATTGCATTGTTAAGATCCGGAGTCACCTAGTGCAG”: 3980 fluorescence intensity (a.u.); “ATCAAGAATCAATCACTCGCTCGTCTTCTCCTCCATTGGACGGAGTCACCTAGTGCAG”: 14800 fluorescence intensity (a.u.).
On to “GGGGTTTGACAGTGGGGTGGAGAGGACAAGTAAACAGTGGCGGAGTCACCTAGTGCAG”, for which the binding signal was 3820 fluorescence intensity (a.u.).
Regarding “AGTCAAATTAATCACGCAGCTGAATGCTGAATAATGTGTCCGGAGTCACCTAGTGCAG”, the binding signal was 24000 fluorescence intensity (a.u.).
Next, “GTGGAATTTACTAACTAGTGAATTAAGAAGATAATGGATGCGGAGTCACCTAGTGCAG”: 3840 fluorescence intensity (a.u.); “TATTTCCACTCGAGTGATTGATATACTTAGGTCCTGTTTGCGGAGTCACCTAGTGCAG”: 20000 fluorescence intensity (a.u.); “GTAGGATTAATTGTCAGGAATGTTAGATATAGAAATAAATCGGAGTCACCTAGTGCAG”: 6430 fluorescence intensity (a.u.).
The figure for “AGATAAATGTGATTGTAATGTTGATCTTCGACGCAAGAGTCGGAGTCACCTAGTGCAG” is 21300 fluorescence intensity (a.u.).
The figure for “ACAAAACAAATTATATATTTCGTCAGAAAACTGCGAGACGCGGAGTCACCTAGTGCAG” is 8340 fluorescence intensity (a.u.); for “CCAACAAGACTTGATTAATCCAATCATCCCAATAATCGTTCGGAGTCACCTAGTGCAG” it is 23700 fluorescence intensity (a.u.); for “GAGCCTGATTTTGAGTGAAATTAAGTGGAATTGTATTAAGCGGAGTCACCTAGTGCAG” it is 8990 fluorescence intensity (a.u.).
Consider “TCCTAATTGAAGGGGATGGGGCAGTCTCTGGTCGACCTCACGGAGTCACCTAGTGCAG”, for which the binding signal is 32300 fluorescence intensity (a.u.).
With “CCACCAATTAAACACGTCTATCTTGCCATATATTCCTCACCGGAGTCACCTAGTGCAG”, the binding signal is 9350 fluorescence intensity (a.u.).
Turning to “AATCTGGACATAATGATTTGTTGTATTAGGAGTACTCCCCCGGAGTCACCTAGTGCAG”, the binding signal is 7280 fluorescence intensity (a.u.).
The figure for “TCCATAATTAGCCATAAGTGCTATACATTAACCCCATATGCGGAGTCACCTAGTGCAG” is 27700 fluorescence intensity (a.u.); for “GTGCTTGATTAGCTAGGGAAGAAGCATCGTGCGGAAGATACGGAGTCACCTAGTGCAG” it is 14500 fluorescence intensity (a.u.); for “AACAAATCAAATTCCGTTAATAGAGAGTTTCTAAAATATGCGGAGTCACCTAGTGCAG” it is 10400 fluorescence intensity (a.u.).
Next, “CATTATTTGATAAAATTGATAATTATGTGGCTAGGTTTAGCGGAGTCACCTAGTGCAG”: 26800 fluorescence intensity (a.u.).
On to “CTAATTATAAACCTTAATCAGCTAAAATCCTAACCCATCACGGAGTCACCTAGTGCAG”, for which the binding signal is 3290 fluorescence intensity (a.u.).
In the case of “CTCATCATTATCAATTCAATTATCGGAATGAAAGGAGCTTCGGAGTCACCTAGTGCAG”, the binding signal is 15500 fluorescence intensity (a.u.).
Next, “AGCCAATTTACATGTGAGACATGTTTCGATTTATGCTGGCCGGAGTCACCTAGTGCAG”: 5620 fluorescence intensity (a.u.); “TGTAATTATATCATTTCAATTTTAAAGTATTAGAGATATGCGGAGTCACCTAGTGCAG”: 22800 fluorescence intensity (a.u.).
The figure for “AATAAACAAGTAAATCATCCATCATCGTTCACCCGCATTTCGGAGTCACCTAGTGCAG” is 7140 fluorescence intensity (a.u.).
Next, “TCTAATTTATTTACGTATATATTATGATATATATAATCTACGGAGTCACCTAGTGCAG”: 4090 fluorescence intensity (a.u.).
Take “TCCTCGCTGTTAACCACATTAATTGTCTAGCTACTCTTGACGGAGTCACCTAGTGCAG”: the binding signal is 22100 fluorescence intensity (a.u.).
The figure for “TCATTCGTCTAAATTAATTAGTGTTATTCAACGCAACATCCGGAGTCACCTAGTGCAG” is 16400 fluorescence intensity (a.u.).
Next, “ACCAATTTGATCATTAACTTTTATACCAACATGACCACATCGGAGTCACCTAGTGCAG”: 10200 fluorescence intensity (a.u.).
Next, “ATAATAATTGCTAGTGGGTGATGATGTGGTATACTTGCATCGGAGTCACCTAGTGCAG”: 30900 fluorescence intensity (a.u.).
Take “AACTAATGATATCCTGTAATCTAGACACCACGTCTAAATTCGGAGTCACCTAGTGCAG”: the binding signal was 5370 fluorescence intensity (a.u.).
For the sequence “TGTTAACGAATCTAGATAGACAGGATAATCCTAGAAAGTTCGGAGTCACCTAGTGCAG”, the binding signal was 5250 fluorescence intensity (a.u.).
Next, “AGGTTTAATTTCAATTAATCATAAAACTTGGACATTTACACGGAGTCACCTAGTGCAG”: 30700 fluorescence intensity (a.u.).
With “CAGGATCCAGTGTGATTGAGGTGAATGGGAAGACCTGTGACGGAGTCACCTAGTGCAG”, the binding signal was 10800 fluorescence intensity (a.u.).
Next, “AAGAAATGATTTCATAATATATACTACACTATGATTTCATCGGAGTCACCTAGTGCAG”: 9870 fluorescence intensity (a.u.).
The figure for “ATTCCGCCCGTCAATCCTGTGCCTCTTCCCTCAATATATACGGAGTCACCTAGTGCAG” is 6620 fluorescence intensity (a.u.); for “ACAAATTCTGAAGCCTGATTAGCGTATCCGCTGATACATTCGGAGTCACCTAGTGCAG” it is 11300 fluorescence intensity (a.u.).
The figure for “AAAGTCTCAATCATAAGACCATAGTAAGGACTGCGGCCCACGGAGTCACCTAGTGCAG” is 4560 fluorescence intensity (a.u.); for “AAACAATTAAGTCTTTATATATATATAAGTAGTGGCACTTCGGAGTCACCTAGTGCAG” it is 5190 fluorescence intensity (a.u.).
On to “AAGCCTTAATTAGCAAAGCATCATCCATACGTAGTTACCGCGGAGTCACCTAGTGCAG”, for which the binding signal was 27900 fluorescence intensity (a.u.).
Turning to “TAGATTTAATGGAACTAATTTAGTATTTTAGATGTTCTTACGGAGTCACCTAGTGCAG”, the binding signal was 9840 fluorescence intensity (a.u.).
For the sequence “GGATTTTACAAAATTTGTAATTTAATTCTGTACACTTGACCGGAGTCACCTAGTGCAG”, the binding signal was 8790 fluorescence intensity (a.u.).
The figure for “TCTAATAAGATAACTCTGATTAGTGCGGCTGGTAGCAGAGCGGAGTCACCTAGTGCAG” is 16100 fluorescence intensity (a.u.).
